# Measured values published in PubChem BioAssay AID493208 (National Center for Advancing Translational Sciences (NCATS), 2011).
# Among all 44,000 compounds or so, about 340 (0.77%) were called active. About 5% were inconclusive and are not listed. Calls follow the shape of the dose curve; as a rule, active = well fitted inhibition curve with a large enough effect; inconclusive = small, poorly fitted or top-dose-only effect; inactive = flat fitted curve, though single readings scatter. The list shows a part of the results.
# Experiment: Acumen qHTS Assay for Inhibitors of the mTORC1 Signaling Pathway in MEF (Tsc2-/-, p53-/-) Cells: Sytravon; also: nearly all actives have a fitted effect of over 50% in size;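 as to activity change, negative = inhibition: plate controls were DMSO for no effect and rapamycin for full effect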
# Details: phospho-rpS6 immunofluorescence/PI, 24 h; series mostly up to 38.3 µM; activity change, negative = inhibition: at the top concentration
# Method in brief: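 Read-out: phospho-S6 Alexa-488 intensity over PI intensity per well, scored as % active cells using thresholds from rapamycin (7.5 nM) and DMSO controls. Tsc2-/-, p53-/- MEFs exposed to compound for 24 h; PI cell count recorded as viability.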
# Potency is read from the fitted curve at half-maximal effect.
SMILES,"activity change, negative = inhibition",Potency
CCOc1ccc(CN2CCc3nc(N4CCN(c5ccccn5)CC4)ncc3C2)cc1OC,inactive: 16.2%,
O=C(Cn1ncc2c3ccccc3n(Cc3ccccc3)c2c1=O)NC1CCCCCC1,inactive: 3.03%,
COc1ccccc1NC(=O)Cn1c(=O)n(-c2cccc(C)c2)c(=O)c2c1c1cc(C)ccc1n2C,inactive: -0.827%,
COc1ccc(-c2coc3c2c(C)cc2oc(=O)c(CC(=O)O)c(C)c23)cc1,inactive: 4.63%,
Cc1ccc(NC(=O)Cn2c(=O)n(Cc3ccc4c(c3)OCO4)c(=O)c3ccccc32)cc1,inactive: -1.42%,
COc1ccc(-c2cn3c(n2)sc2cc(C(=O)NCc4cccc(F)c4)ccc23)cc1,inactive: 3.98%,
Cc1ccc(C(=O)c2cn(Cc3ccccc3C)c3nc(C)ccc3c2=O)cc1,inactive: -7.3%,
Cc1ccccc1-c1cc2nccc(-c3cc(Cl)ccc3O)n2n1,inactive: -22%,
CCCc1cnc2c(c1SCc1cccc(F)c1)c(=O)n(C)c(=O)n2C,inactive: 3.7%,
Cc1oc2c(cc(NS(=O)(=O)c3ccc(Cl)cc3)c3ccccc32)c1C(=O)OCc1ccccc1,inactive: -16.6%,
CCCc1noc(-c2ccc(NCc3ccc(C)cc3)c([N+](=O)[O-])c2)n1,inactive: -4.79%,
Cc1ccc(NC(=O)CN2C(=O)COc3ccc(S(=O)(=O)NC4CCCC4)cc32)c(Cl)c1,inactive: -1.47%,
Cc1nc(C)c(CCNS(=O)(=O)c2ccc(F)cc2)s1,inactive: -5.39%,
CCc1ccc(Nc2nnc(-n3nc(C)cc3C)c3ccccc23)cc1,inactive: 0.346%,
COc1ccc(CNC(=O)c2cnc3sc(N4CCCC4)nn3c2=O)c(OC)c1,inactive: -8.98%,
CCCCNC(=O)CSc1nc2cc3c(cc2c(=O)n1CCCCCC(=O)NCc1ccc(OC)cc1)OCO3,inactive: 0.512%,
Cc1ccccc1C(=O)NCCc1sc(-c2ccc(Cl)cc2)nc1C,inactive: -1.49%,
COc1ccc(CNC(=O)Cc2csc3nc(-c4ccc(F)cc4)cn23)cc1,inactive: 0.158%,
COc1ccc(N(Cc2cccs2)C(=O)Nc2cccc(Cl)c2)cc1,inactive: -9.46%,
CCOC(=O)C1CCCN(S(=O)(=O)c2ccc3c(c2)oc(=O)n3C)C1 (stereo unspecified),inactive: -2.67%,
COc1ccc(C2CC(=O)N(CC(=O)Nc3ccc(C)c(Cl)c3)c3ccccc3S2)cc1OC (stereo unspecified),inactive: -1.87%,
COc1ccc(-c2nc(SCC(=O)NC3CCCC3)c(-c3ccc(C)cc3)[nH]2)cc1OC,inactive: -1.64%,
CCOc1ccc(NC(=O)C(=O)NCC(c2cccnc2)N2CCc3ccccc32)cc1 (stereo unspecified),inactive: 8.71%,
Cc1ccccc1NC(=O)CCN1C(=O)c2ccccc2Sc2ncccc21,inactive: -5.41%,

SMILES,"activity change, negative = inhibition",Potency
COc1cccc(NC(=O)CCc2c(C)nc3ncnn3c2C)c1,inactive: -7.26%,
C#CC(C)(CC)NC(=O)Cn1nnc(-c2ccc(OCc3c(F)cccc3Cl)cc2)n1 (stereo unspecified),inactive: 1.47%,
COc1cc(NC(=O)CN(c2cc(C)cc(C)c2)S(=O)(=O)c2c(C)[nH]c(=O)[nH]c2=O)cc(OC)c1,inactive: 0.108%,
Cc1cn2c(=O)cc(COc3ccc(NC(=O)COc4ccccc4)cc3)nc2s1,inactive: -8.36%,
Cc1ccc(-n2c(=O)c3ccc(C(=O)NCc4ccccc4Cl)cc3n(CC(=O)Nc3ccc(C)cc3C)c2=O)cc1,inactive: -7.62%,
Cc1cc(C)cc(C(=O)n2nc(C)c(S(=O)(=O)N3CCOCC3)c2C)c1,inactive: -12.7%,
O=C(CSc1ncc2c(n1)-c1ccccc1N(Cc1ccc(F)cc1)S2(=O)=O)NCCc1ccccc1,inactive: 2.92%,
CCOC(=O)c1c(NC(=O)c2ccc(F)cc2)sc2c1CCC(CC)C2 (stereo unspecified),inactive: -5.43%,
CCOC(=O)c1cccc(NC(=O)[C@H](CSCc2ccccc2)N2Cc3ccccc3C2=O)c1,inactive: 1.03%,
Cc1ccc(Nc2cc(C)nc3nncn23)c(C)c1,inactive: -4.84%,
CCOc1ccc(-c2nc3ccccc3c(=O)o2)cc1,inactive: 4.54%,
CN1C(=O)C2(c3ccccc31)N(c1ccc(Br)cc1)C(=O)CS2(=O)=O (stereo unspecified),inactive: 5.43%,
O=C(C1CCC(Cn2c(=O)c3sccc3n(Cc3ccc(F)cc3)c2=O)CC1)N1CCOCC1 (stereo unspecified),inactive: -0.872%,
O=c1[nH]c(C2CCCN(S(=O)(=O)c3ccccc3)C2)nc2c1nnn2Cc1ccc(OC(F)(F)F)cc1 (stereo unspecified),inactive: -3.29%,
CN1C(=O)c2[nH]nc(-c3ccc(F)cc3)c2C1c1cccc(O)c1 (stereo unspecified),inactive: 2.39%,
CC(C)CCn1c(SCc2cccc(F)c2)nc2ccsc2c1=O,inactive: -3.77%,
Cn1cc(-c2cc3n(n2)CCC(=O)N3CCCC(=O)NCc2ccccc2Cl)c2ccccc21,inactive: -4.43%,
CCc1ccc2oc(C(=O)NCc3ccccc3)cc(=O)c2c1,inactive: -10.3%,
CCCCOc1ccc(C2C(=O)N(C3CCCCC3)CC(=O)N2CCCC)cc1 (stereo unspecified),inactive: 9.06%,
Cc1cc(C)cc(C(=O)N2CC(=O)Nc3ccc(Br)cc3C2c2ccccc2)c1 (stereo unspecified),inactive: -2.71%,
Cc1ccc(NC(=O)Cn2c(-c3nonc3N)nc3ccccc32)c(Br)c1,inactive: 3.94%,
CCOC(=O)c1noc2ncn(CC(=O)Nc3ccccc3OC)c(=O)c12,inactive: -6.68%,
COc1cccc(CNC(=O)CCc2c(C)c3ccc(O)c(C)c3oc2=O)c1,inactive: -3.39%,
Cc1ccc(OCCOCCn2c(-c3ccc(Cl)cc3)nc3ccccc3c2=O)cc1,inactive: 2.96%,

SMILES,"activity change, negative = inhibition",Potency
CCCCN(CC)CCCNC(=O)c1ccc2c(c1)NC(=O)CN2C,inactive: 7.58%,
COc1ccc2c(c1)CCc1c(C(=O)Nc3ccc(C#N)cc3)noc1-2,inactive: -6.96%,
COc1ccc(-n2c(SCc3ccccc3)nc3c([nH]c4ccccc43)c2=O)cc1,inactive: 1.26%,
COc1cccc(CNC(=O)Cn2nc(N3CCN(c4ccccc4OC)CC3)ccc2=O)c1,inactive: -9.99%,
COc1ccc(C)cc1NC(=O)CN1C(=O)COc2ccc(S(=O)(=O)N3CCC(C)CC3)cc21,inactive: -1.34%,
Cc1c(Cl)cccc1NC(=O)C(C)n1c(=O)cc(C)c2c(C)nn(-c3ccccc3)c21 (stereo unspecified),inactive: -1.43%,
CCOc1ccc(-n2c(=O)c3c(C)c(C)sc3n(Cc3ccccc3C)c2=O)cc1,inactive: 2.52%,
CCCCc1nnc(SCc2cc(=O)c3cc(F)ccc3[nH]2)n1C,inactive: 2.84%,
COc1ccc(-c2cc(C(F)(F)F)nc(SCCC(=O)Nc3ccc(OC)c(OC)c3)n2)cc1,inactive: -18.2%,
Cc1ccc(NC(=O)c2sc3nc(-c4cccs4)ccc3c2N)cc1F,inactive: -0.964%,
CCN(CC)C(=O)c1c(NC(=O)c2cccc(C)c2)sc2c1CCC(C)C2 (stereo unspecified),inactive: -7.63%,
CC(C)(C)NC(=O)C1CCN(c2nc3ccccc3nc2C(F)(F)F)CC1,inactive: -6.73%,
COc1ccc(CNC(=O)CN2C(=O)CC(c3ccc(C)c(C)c3)=Nc3ccccc32)cc1,inactive: 3.1%,
COc1ccc(C(=O)NCCn2cc(SCc3c(F)cccc3Cl)c3ccccc32)cc1,inactive: -13.5%,
Cc1ccc(-n2ncc3c(NC4CCCCCC4)ncnc32)cc1,inactive: 13.6%,
O=c1[nH]c2cc(Br)ccc2n2cccc12,inactive: -6.49%,
Cc1cc(C)c(-c2n[nH]c3c2C(c2ccccc2F)N(Cc2ccco2)C3=O)c(O)c1 (stereo unspecified),,active: 13.1 µM
O=C(c1cnc(N2CCOCC2)c2ccccc12)N1CCN(c2ccccc2)CC1,inactive: -4.15%,
COc1cc(NC(=O)N2CCc3c(sc4c3CCCC4)C2c2ccccc2)cc(OC)c1OC (stereo unspecified),inactive: 0%,
O=C(CN1C(=O)COc2ccc(S(=O)(=O)NC3CCCC3)cc21)NCc1ccc(Cl)cc1,inactive: -0.948%,
CCOc1ccc(CNC(=O)CSc2nnc(C)c3c(C)n(-c4ccc(Cl)cc4)nc23)cc1,inactive: -0.0425%,
CCN(CC)CCSc1c(C(C)C)cnc2c1c(=O)n(C)c(=O)n2C,inactive: 8%,
COc1ccc(OC)c2sc(N3CCN(C(=O)c4ccco4)CC3)nc12,inactive: -3.69%,
CN1CCN(C(=O)C(=O)Nc2c3c(nn2-c2ccc(Cl)cc2)CSC3)CC1,inactive: 0.281%,

SMILES,"activity change, negative = inhibition",Potency
CCOCCCn1c(=N)c(C(=O)NCc2cccnc2)cc2c(=O)n3ccccc3nc21,inactive: -11.9%,
CCN(CC)C(=O)c1ccc2c(c1)N(Cc1ccc(C(F)(F)F)cc1)C(=O)c1ccccc1S2,inactive: 2.94%,
Cc1ccc(N2C(=O)CCSC23C(=O)N(Cc2ccccc2)c2ccccc23)cc1 (stereo unspecified),inactive: 3.69%,
Cc1nn2c(=O)cc(COC(=O)c3cccc(NC(=O)COc4ccccc4C)c3)nc2s1,inactive: 0%,
Cn1c(=O)c(C(=O)O)nn(-c2ccccc2)c1=O,inactive: 11.1%,
CCC(=O)NCCc1nc2cc(NC(=O)c3cccc(Br)c3)ccc2n1C,inactive: -11.3%,
Cc1ccc(NC(=O)Nc2nnc(N3CCCC3)s2)cc1C,inactive: 0.0809%,
COC(=O)c1ccc(C(=O)OC)c(NC(=O)CN(c2ccccc2)S(=O)(=O)N(C)C)c1,inactive: -13%,
COc1cccc(CNC(=O)CSC2=Nc3ccccc3N=C(c3ccc(F)cc3)C2)c1,inactive: -2.99%,
CCOc1ccccc1CNC(=O)C1CCCN(c2nnc(C)c3c(C)n(-c4ccccc4)nc23)C1 (stereo unspecified),inactive: -13%,
COc1ccc(Nc2ncnc3sc4c(c23)CCCC4)cc1,inactive: 7.27%,
CCOC(=O)C1CCN(C(=O)Cn2nc(CC)n3c(cc4sccc43)c2=O)CC1,inactive: -0.421%,
O=C(NCc1ccccc1Cl)c1ccc(CS(=O)(=O)c2ccc(Br)cc2)o1,inactive: 6.75%,
Cc1c(CNC2CCCCC2)c(C(=O)O)c(C)n1Cc1ccc(Cl)cc1,inactive: 2.84%,
Cc1ccc(Cn2c3ccccc3c3cnn(CC(=O)Nc4cc(Cl)ccc4C)c(=O)c32)cc1,inactive: -5.57%,
CCN(CC)S(=O)(=O)c1ccc2c(c1)N(CC(=O)N1CCN(c3cccc(C)c3C)CC1)C(=O)CO2,inactive: -14.8%,
Cc1cc(C)c(NC(=O)Cn2c(=O)n(CCC(=O)N3CCc4ccccc4C3)c(=O)c3ccccc32)c(C)c1,inactive: -2.34%,
CCc1nn(CCCC(=O)NCc2ccc(OC(C)C)cc2)c(=O)c2cc3occc3n12,inactive: -15%,
O=C(CSc1n[nH]c(-c2ccccc2Cl)n1)NCCc1ccccc1,inactive: 4.91%,
COc1ccc(N2CCN(C(=O)c3cccn3-c3nnc(N4CCCC4)s3)CC2)cc1,inactive: -5.39%,
CCOc1cc(CNS(=O)(=O)c2ccc3c(c2)C(C)(C)C(=O)N3)cc(OCC)c1OCC,inactive: 0%,
CC(NC(=O)Cn1ccc2cc(S(=O)(=O)N3CCCCCC3)ccc21)c1ccccc1 (stereo unspecified),inactive: -9.93%,
COc1ccc(C)cc1NC(=O)Nc1nnc(N2CCCCC2)s1,inactive: 4.15%,
CCOC(=O)C1CCCN(c2nc3c(S(=O)(=O)c4ccc(CC)cc4)nnn3c3ccc(Cl)cc23)C1 (stereo unspecified),inactive: -9.27%,
